# This is one part of the list. At the low end of the ranking, values are background and their order means little.
# Target: T1, GST-Rok-C97-191 (UniProt O34857)
# T1 sequence: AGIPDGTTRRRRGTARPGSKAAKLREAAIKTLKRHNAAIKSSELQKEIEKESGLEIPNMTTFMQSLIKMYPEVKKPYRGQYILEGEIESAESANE
# Assay: protein binding microarray;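 also: rank score from −0.5 (least bound) to 0.5 (best bound)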
# Conditions: Rok is a gene silencer of Bacillus subtilis; high values mean tight binding; most listed sequences are background and not binding sites; double strand, one strand shown
row,Sequence,binding signal
1,CCCGTGAA,-0.192 E-score
2,ACTCCACA,-0.00395 E-score
3,AAGGATAA,0.131 E-score
4,AATATGGA,0.0515 E-score
5,AAAACAAC,0.116 E-score
6,AATAGTTA,0.32 E-score
7,ATGTTCAG,0.186 E-score
8,AAGGTTCG,0.028 E-score
9,CTTCCCCA,-0.0482 E-score
10,ACTCTATG,-0.0409 E-score
11,AAGTCCGT,-0.123 E-score
12,AGAGGATC,-0.127 E-score
13,ATGCTACC,0.00967 E-score
14,ACAGAACT,0.286 E-score
15,GCCGAGTA,-0.104 E-score
16,CGTTGCCA,-0.142 E-score
17,GTGCGGTA,-0.0241 E-score
18,AAGTACAT,0.283 E-score
19,CGTATTAC,0.223 E-score
20,TAATCCTA,0.179 E-score
21,GAAACAAA,0.0875 E-score
22,GATGTTAA,0.0172 E-score

row,Sequence,binding signal
1,GGCGGGGA,-0.313 E-score
2,CGAGGCCA,-0.121 E-score
3,CAAAAGAG,-0.195 E-score
4,AGATCATC,-0.157 E-score
5,AACGGCAC,-0.043 E-score
6,CGATCTTA,0.0234 E-score
7,CTGGCAAG,-0.12 E-score
8,ACGTAAAA,0.116 E-score
9,TCAATACA,0.0914 E-score
10,CGCTCGAA,-0.209 E-score
11,GATCCGAA,-0.0447 E-score
12,AGCCGCTC,-0.193 E-score
13,AAGCACCC,-0.18 E-score
14,AACTACCC,0.338 E-score
15,CTAATCGA,0 E-score
16,AGAGTTTA,0.105 E-score
17,AACACCAA,-0.00863 E-score
18,AACACTTC,0.0552 E-score
19,ATTGCTTC,0.103 E-score
20,ACTAAATG,0.226 E-score
21,ATTTACCA,0.308 E-score
22,ACTTAAGT,0.118 E-score

row,Sequence,binding signal
1,AGTCACTA,0.0882 E-score
2,GAATAAGC,0.0331 E-score
3,ACACTTGG,-0.0674 E-score
4,GGCACATA,-0.0823 E-score
5,ACGGCGTC,-0.0966 E-score
6,GGGGCGAC,-0.311 E-score
7,CCGAAAAA,-0.00198 E-score
8,AAATCGAG,0.0279 E-score
9,CGCGAGGC,-0.179 E-score
10,TATCCGCA,0.119 E-score
11,CGGAAATC,0.0274 E-score
12,CAGACTCG,-0.0299 E-score
13,TAAAACGA,0.027 E-score
14,CTCTGCAG,-0.16 E-score
15,GGGGTAAA,0.153 E-score
16,ACTTGTAA,0.168 E-score
17,CACGGTGC,-0.189 E-score
18,ATCAAGGC,-0.0755 E-score
19,GAGCAGTA,0.094 E-score
20,ATAATATA,0.435 E-score
21,CGTCAATA,0.0912 E-score
22,GCAGAGGA,-0.251 E-score

row,Sequence,binding signal
1,ACAAGGGG,-0.0673 E-score
2,GAACGAGA,-0.0271 E-score
3,CGTGCCGA,-0.178 E-score
4,GTAGTAGA,0.368 E-score
5,GCGTTGAA,-0.0546 E-score
6,ACCATCGA,0.139 E-score
7,ATAAAATG,0.246 E-score
8,CCCGGTGA,-0.253 E-score
9,AAGTCCGG,-0.203 E-score
10,GAGACTGA,-0.0258 E-score
11,AGGACCCC,-0.251 E-score
12,TCTGGAAA,0.0146 E-score
13,AATGGCGA,-0.102 E-score
14,AACCATGG,0.0755 E-score
15,CCATAAAC,0.0109 E-score
16,CCAGACGC,-0.208 E-score
17,CGACGCTC,-0.217 E-score
18,GCGCACGC,-0.0982 E-score
19,AATGGGCG,-0.198 E-score
20,AGTCGTCA,-0.113 E-score

# From PMC6212790
